Data from article PMC12136788.
The list shows a part of the results.

T1: UNK ZnF1-3 (human, UniProt Q9C0B0 31-174)
T1 sequence: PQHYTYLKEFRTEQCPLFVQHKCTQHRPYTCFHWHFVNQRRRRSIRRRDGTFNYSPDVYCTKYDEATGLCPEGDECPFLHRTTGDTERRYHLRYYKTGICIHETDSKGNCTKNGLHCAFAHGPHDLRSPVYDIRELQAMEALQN

B1: chr4:115894766:115894767:+_ENSMUSG00000028698_ENSMUST00000030464|mus_hu|mus_mus_mus_hu_True|38_98 (ssRNA)
RNA: GGGAGUUCUACAGUCCGACGAUCUUCCACACGGAAAGUACUUGGGGGUUUUCCAACGGCCAGUACCAGUCCGGCCAAACUACCCGAACAGGGUCCUGUCCUCCUCUCCUACAGAACACAACAAAAUGCCCCCGAACUUUCAAGCAACAGAGGAUUGAGCAUCA
B2: chr13:36245089:36245090:+_ENSG00000172915_ENST00000537702|perfect_dup|motif|central (ssRNA)
RNA: GGGAGUUCUACAGUCCGACGAUCGUUCUUCCUUUAUCUUCAGUAUCUGUUCUGAUGCUCAUAAUGCCACCGAUUAAAAUCGGUAUUAAAAGCUACAAUGCUACCAGAAGCCAUGCCAGUGAUCAGAGUCCUCUGGUCAUGGGACAACAGAGGAUUGAGCAUCA
B3: chr7:135612270:135612271:-_ENSG00000105887_ENST00000393085|hu_mus|hu_hu_hu_mus_False|1_88 (ssRNA)
RNA: GGGAGUUCUACAGUCCGACGAUCGUUUUUUUCUGAGAUGUUAAAUAUUCAGUGGAGGGAAAACAAAACUUAACCUUUUAUUAAUGCGUGUUGUACCAAAAGCAGACAUUUUAGCUUCAUUUAUUCAAAAAUAUUAAGAACAUUCAACAGAGGAUUGAGCAUCA
B4: chr19:16212804:16212805:+_ENSG00000167460_ENST00000300933|hu_mus|hu_hu_hu_mus_False|68_88 (ssRNA)
RNA: GGGAGUUCUACAGUCCGACGAUCAACAAUUCUGGAGUGAAGGAAAGCAUCAAGGAUGAACAGCAUUCCAUCUAUUACAGAAGGCACAUGGGCAACAAUGAUCACCCCAGCAUUCUCGCUUGGAAUGCUUAAAGACAAUCUGUUCAACAGAGGAUUGAGCAUCA
B5: chr2:181922443:181922444:+_ENSG00000170035_ENST00000410062|hu_mus|FALSE|FALSE (ssRNA)
RNA: GGGAGUUCUACAGUCCGACGAUCAACACCACCUUCAUAUACAGAACCUGGUGGACCAAGUAUAGUUGACCUCCAUUCAUAAAUGUUAUCUCCUUUAGGCCCAGCACUGCAGUUAGGAGGAGGAUCAAGGGUUAUCUCUGCUAGCAACAGAGGAUUGAGCAUCA
B6: chr3:176767854:176767855:-_ENSG00000177565_ENST00000430069|hu_hu|hu_hu_hu_mus_False|38_108 (ssRNA)
RNA: GGGAGUUCUACAGUCCGACGAUCGACAUCCUUGUUGCUGGGCACGUCCUGCCCUCCUUCCCGUAUGCAGUGUCUAAGCACGAGCUGCGUAGGGCCACUGGUGCUGUUCUCACUGAGGUUCCAGAUUCUUGCCGUGGAGUCUCCCAACAGAGGAUUGAGCAUCA
B7: 23952904_23953024_1872_CDS_ENSMUSG00000039218_ENSMUST00000088621|mouse|control|control (ssRNA)
RNA: GGGAGUUCUACAGUCCGACGAUCGCCACUUCUCCUGGCUGGUGUUCUGGACCUAGACCUACCACUUCUCCUAGCUUGGGAUCUACUCCGAGACCUCCUUCGAACUGGUGAUCGUGUCCUAGACCUGCGGCGAGCGGGUGUUCUCAACAGAGGAUUGAGCAUCA
B8: 4694108_4694228_2005_3pUTR_ENSMUSG00000066324_ENSMUST00000084949|mouse|control|control (ssRNA)
RNA: GGGAGUUCUACAGUCCGACGAUCAUCCUGAUCAGUGGAGAAAGGAUGAACAAUGGCCCCUUUCAUAGGGAAAUGAAAAUCAACUGCAACACUCAGACAAUUCCAGUAUAAUUCAGUCAUCUGUCUACCUUCUACCAGCUGGUCCAACAGAGGAUUGAGCAUCA
B9: chr1:220369670:220369671:-_ENSG00000118873_ENST00000358951|hu_mus|FALSE|FALSE (ssRNA)
RNA: GGGAGUUCUACAGUCCGACGAUCGAAGCCAGUGAACGGACUGGAGCCCACAGUGAUGUACUGAGACAUGGCAGGCGGACUGUUUUUAAUUGCUGCAUUAAAUCCACCUAUAUUGGAAGCAGUCUUCAUUUGAUCAAAUGGUGACAACAGAGGAUUGAGCAUCA
B10: chr12:48362563:48362564:+_ENSG00000134291_ENST00000256686|hu_hu|hu_hu_hu_mus_False|1_98 (ssRNA)
RNA: GGGAGUUCUACAGUCCGACGAUCUCCGUCAAGCCCUUCAAGCCCCACUUGCGGGGGAAACUGUAAUCACUUUGUAUGGGGAAGGAAAAGAAACGCCAAAAACUUUCCAAAAAGCGGGGGUGGGGUGAGGCGGGAGGUUGGGAACAACAGAGGAUUGAGCAUCA
B11: chr2:33267772:33267773:-_ENSMUSG00000068966_ENSMUST00000091037|mus_mus|FALSE|FALSE (ssRNA)
RNA: GGGAGUUCUACAGUCCGACGAUCCAUCCUUCCAGUGUAACAGAAGGAGAGCAACUGCUCAAACACGCUGGGGUUCUUAAUCACAGAGAUCGACAAGCCACUCAUAGUGCUCAGUGCUGAAUGGUCCCGGAAAUACGGGGAGCUCAACAGAGGAUUGAGCAUCA
B12: chr7:54823571:54823572:-_ENSG00000132432_ENST00000352861|hu_mus|hu_hu_hu_mus_False|88_98 (ssRNA)
RNA: GGGAGUUCUACAGUCCGACGAUCUCCCAUGAUAGCAAAUCCUAUUGCUGUUGCCAUGGCAAUCUUCUGGAAUUCUUUUCUGUCGGGUUUGGUGCAUCUUUUAACCAGCCGAAUUGAGUCCUUUACAAACUGCCGGCUGGGCUCCAACAGAGGAUUGAGCAUCA
B13: chr16:14041815:14041816:+_ENSG00000175595_ENST00000311895|hu_hu|motif|central (ssRNA)
RNA: GGGAGUUCUACAGUCCGACGAUCGGGGCACCAGAGAAUCCGUAGUCUGGGGAAGUGAAGUGUAAGAAGAGUGAGUUUGGAACGGAUGUCAUUGCUGGAGAUCUCCUGAAACAAGGCACCUCGGGAAGUGAGAGAGAAAGGCUUCAACAGAGGAUUGAGCAUCA
B14: chr1:39494447:39494448:+_ENSG00000168653_ENST00000372967|hu_mus|hu_hu_hu_mus_False|48_108 (ssRNA)
RNA: GGGAGUUCUACAGUCCGACGAUCGCAUCGACCAGCCUUCUUAUAGGGCUGUUCUGCGCUUAGGAACAUAAAGUGCCGGUCCAGGCUAAGGCCGAACUUUUUCUGUAUGUCAAGGAAAGGCAUGGCUCUGCAGUGCCCUUGUCACAACAGAGGAUUGAGCAUCA
B15: chr17:64801638:64801639:+_ENSG00000154229_ENST00000413366|hu_mus|hu_hu_hu_mus_False|28_58 (ssRNA)
RNA: GGGAGUUCUACAGUCCGACGAUCUAUAUAUAUAUAUACAUAUGUACACAUAUAUAGUAAAACCCUAGUUAAACGUGUAAACUAGCCAUUCAUUUUUAAAAUUACAUCUACAUUUAAAAAUUAAUAUAUCUGAUAGAGUGCCAGCAACAGAGGAUUGAGCAUCA
B16: chr7:141450121:141450122:+_ENSG00000106028_ENST00000265304|hu_mus|FALSE|FALSE (ssRNA)
RNA: GGGAGUUCUACAGUCCGACGAUCUCAUCCGUUCUAUGCCUUUUCUUUUGUCUGGUCACUCAGAAAUAUAAUGUUAUCAGCUAUGAUUGUUGUUGCUUGCCGCCUCACAUUGUUUUUAUCCAUGUACUCGCCAUAGUCCACUUUCAACAGAGGAUUGAGCAUCA
B17: 154691501_154692426_2298_CDS_ENSMUSG00000042772_ENSMUST00000043560|mouse|control|control (ssRNA)
RNA: GGGAGUUCUACAGUCCGACGAUCAUUCCACAGCUGUUUGGAGGCAUCUGCCUGUUGAUACUGCUGGAAUCCAGAGUGGUGAGGCGGGCUUUUCCCCAAAGCUGGUAUGACUUUUGUAGGGGAUUGCUGUUGCUGAGCUAGAGCCAACAGAGGAUUGAGCAUCA
B18: chr3:49759264:49759265:-_ENSG00000173540_ENST00000308388|hu_hu|FALSE|FALSE (ssRNA)
RNA: GGGAGUUCUACAGUCCGACGAUCGCCAAUAGACUUGUGGGGCAGCACGCUGGCUCCGUUGAGGUAGAGCUCAUCAUUAACUAUGACGUCCUCACCCAGCACUGUCACGUUCUCCAUGCGUACCCACUGACCCACGCGGCAGCGCAACAGAGGAUUGAGCAUCA
B19: chr6:91066717:91066718:-_ENSMUSG00000030091_ENSMUST00000032179|mus_hu|FALSE|FALSE (ssRNA)
RNA: GGGAGUUCUACAGUCCGACGAUCCGCAGCGGCGGAGGGGCCCGCCGCCAACAGCACCGACAGCGUCAGCAGCAGCAGCCCCCGGCCCCGCGCCGCCAUCCUCGCCGCGCGUCACCUCCCGCGACCCUGCGCCCGGCCGCCCGCCAACAGAGGAUUGAGCAUCA
B20: chr2:114714976:114714977:+_ENSG00000115091_ENST00000536059|hu_hu|FALSE|FALSE (ssRNA)
RNA: GGGAGUUCUACAGUCCGACGAUCAUAACUAUGAAGCCAAUUUUACGACAUGACUCCAAACACUGGAUUGUGACGACAAAUGCUAGGUCCAAUUUCUUCAUAAUCCUUUUUGGUGUGGCAUACUUGGUAGAACUCAGGCGUGGACAACAGAGGAUUGAGCAUCA
B21: chr8:108054885:108054886:-_ENSMUSG00000013160_ENSMUST00000013304|mus_mus|motif|central (ssRNA)
RNA: GGGAGUUCUACAGUCCGACGAUCUGAACGCUGGUGCAGUGUGCCUGUGAUUAGCAGGAUCACGUUGUCAAUCAUGUAGCGGUAAGUUAUGAAGUCCAGGAAGCUGGCGAGCGGCUCAUAAGCAUGGUUUCUCAUGUGGCGGAACAACAGAGGAUUGAGCAUCA
B22: chr11:33163239:33163240:-_ENSG00000176102_ENST00000323959|hu_mus|FALSE|FALSE (ssRNA)
RNA: GGGAGUUCUACAGUCCGACGAUCUCUGCCAGAACUGGGGAACUGGGCAACAAGGCGUUCGUAAGUCUUCCGUGCUUUGUCUAUAGGUUGAUUCUGUGCCUCUCGAAUGAGAAUGCUCCAAGCAUCAAGGUCAUAUGGAUUUUCCAACAGAGGAUUGAGCAUCA

Target: T1, UNK ZnF1-3
Test: nsRBNS (natural sequence RNA bind-n-seq); RBNS binding buffer (assumed for nsRBNS): 25 mM Tris pH 7.5, 150 mM KCl, 3 mM MgCl2, 0.01% Triton X-100, 500 ug/ml BSA, 20 U/ml SUPERase-In, 4 C; UNK is unkempt and MSI1 is Musashi-1; names of the RNAs are library labels; protein concentration not given here; high values mean tight binding

| Binder | binding signal [enrichment R] |
| --- | --- |
| B1 | 1.06 |
| B2 | 1.05 |
| B3 | 2.09 |
| B4 | 1.23 |
| B5 | 2.02 |
| B6 | 0.553 |
| B7 | 0.856 |
| B8 | 1.24 |
| B9 | 0.893 |
| B10 | 1.93 |
| B11 | 1.67 |
| B12 | 0.604 |
| B13 | 2.12 |
| B14 | 0.807 |
| B15 | 1.56 |
| B16 | 0.387 |
| B17 | 0.609 |
| B18 | 0.952 |
| B19 | 1.67 |
| B20 | 1.21 |
| B21 | 0.944 |
| B22 | 0.474 |
